In PubChem BioAssay AID1963576 (National Center for Advancing Translational Sciences (NCATS), 2024):
Screen size: about 46,000 compounds; about 60 (0.1%) were called active. Inconclusive results (about 3%) are left out. Calls follow the shape of the dose curve; as a rule, active = well fitted inhibition curve with a large enough effect; inconclusive = small, poorly fitted or top-dose-only effect; inactive = no such curve, though single readings can be large or run the other way. The list shows a part of the results.

test: Primary qHTS assay for Inhibitors of ovarian cancer metastasis using an organotypic tumor microenvironment (TME) model.; also: nearly all actives have a fitted effect of over 65% in size;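 as to activity change, negative = inhibition: plate controls were DMSO wells for no effect and tomatine positive control wells for full effect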; settings: SKOV3ip1-GFP adhesion/invasion on 3D omental model, fluorescence; series mostly up to 45.8 µM; activity change, negative = inhibition: at the top concentration
Summary of the method: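 Primary human omental fibroblast/mesothelial 3D culture pre-formed 48 h. SKOV3ip1-GFP cells added with compounds (0.36-46 umol/L), incubated 2 h RT/16 h 37 C, fixed; GFP cells quantified at 488/509 nm.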

outcome, inactive:
COc1ccc(CN2CCN(Cc3cc(=O)oc4cc(C)ccc34)CC2)c(OC)c1OC
O=C(CSc1nc2ccccc2n1Cc1ccccc1)N1CCN(c2ccc(F)cc2)CC1
CSc1ccc(CCNC(=O)C2CCN(c3nc4ccccc4nc3C(F)(F)F)CC2)cc1
CN1C(=O)C2(c3ccccc31)N(c1ccccc1)C(=O)CS2(=O)=O (stereo not given)
Cc1ccc(C)c(CN2C(=O)c3ccccc3S(=O)(=O)c3ccc(C(=O)Nc4ccccc4C(F)(F)F)cc32)c1
COc1ccc(-c2nc3scc(CCNS(=O)(=O)c4c(C)noc4C)n3n2)cc1
COc1ccc(/C=C\c2onc(C)c2S(=O)(=O)N2CCC(C(=O)Nc3ccccc3OC)CC2)cc1

Activity change, negative = inhibition, inactive:
COc1ccc(-n2cc(C(=O)NCc3ccccc3)c3ccccc3c2=O)cc1 -2.3%
CCc1ccc(-c2nc3ccc(Br)cc3c(C(=O)O)c2C)s1 -11.9%
Cc1ccccc1CNC(=O)C1CCN(c2nnc(C)c3c(C)n(-c4ccccc4)nc23)CC1 7.51%
O=C(Cn1c(=O)n(Cc2ccc3c(c2)OCO3)c(=O)c2oc3ccccc3c21)Nc1ccccc1 8%
COc1cc(-c2noc(-c3cc4cc(F)ccc4oc3=O)n2)cc(OC)c1OC 11.4%
CCc1nnc(NC(=O)c2cc(=O)c3cc(C)c(C)cc3o2)s1 -1.67%
COC(=O)c1ccc(NC(=O)c2c(NCc3ccc(C)o3)sc3c2CCCC3)cc1 7.31%
CCn1c(C(=O)NCc2cccc(Br)c2)cc2oc3ccccc3c21 1.22%
Cc1cc(C)c2oc(C(=O)Nc3sc4c(c3C(=O)NCc3ccco3)CCC4)cc(=O)c2c1 -0.794%
CN1CCN(C(=O)C(=O)Nc2c3c(nn2-c2ccc(F)cc2)CSC3)CC1 -11.3%
Cc1ccc(NC(=O)/C=C/c2ccccc2)c(Br)c1 0.42%
COc1ccc(N2CCN(C(=O)Cn3cnc4nc5c(cc4c3=O)CCCC5)CC2)cc1 -4.13%
Cc1ccc(S(=O)(=O)NCCc2nnc3ccc(SCc4ccccc4C)nn23)cc1 -0.976%
CC(=O)O[C@@]12CO[C@H]1C[C@H](O)[C@@]1(C)C(=O)[C@H](O)C3=C(C)[C@@H](OC(=O)C(O)[C@@H](NC(=O)OC(C)(C)C)c4ccccc4)C[C@@](O)([C@@H](OC(=O)c4ccccc4)[C@@H]21)C3(C)C (stereo not given in full) 0.637%
CCOC(=O)c1cccc(NC(=O)c2cc(CN3CCCC3)on2)c1 -0.704%
Cc1ccc(OC(=O)c2cc(-c3ccc4c(c3)OCCO4)on2)c(C)c1 -11.3%
CCc1nn(CCCC(=O)NCc2ccccc2Br)c(=O)c2cc3occc3n12 -15.2%
CC1CCN(S(=O)(=O)c2ccc3c(c2)N(CC(=O)NC(C)C)C(=O)CS3)CC1 10.4%
